One protein from patent US20040022772 can be followed below.

In data set [1] the target is T1, p160 BCR, P11274.
T1 chain: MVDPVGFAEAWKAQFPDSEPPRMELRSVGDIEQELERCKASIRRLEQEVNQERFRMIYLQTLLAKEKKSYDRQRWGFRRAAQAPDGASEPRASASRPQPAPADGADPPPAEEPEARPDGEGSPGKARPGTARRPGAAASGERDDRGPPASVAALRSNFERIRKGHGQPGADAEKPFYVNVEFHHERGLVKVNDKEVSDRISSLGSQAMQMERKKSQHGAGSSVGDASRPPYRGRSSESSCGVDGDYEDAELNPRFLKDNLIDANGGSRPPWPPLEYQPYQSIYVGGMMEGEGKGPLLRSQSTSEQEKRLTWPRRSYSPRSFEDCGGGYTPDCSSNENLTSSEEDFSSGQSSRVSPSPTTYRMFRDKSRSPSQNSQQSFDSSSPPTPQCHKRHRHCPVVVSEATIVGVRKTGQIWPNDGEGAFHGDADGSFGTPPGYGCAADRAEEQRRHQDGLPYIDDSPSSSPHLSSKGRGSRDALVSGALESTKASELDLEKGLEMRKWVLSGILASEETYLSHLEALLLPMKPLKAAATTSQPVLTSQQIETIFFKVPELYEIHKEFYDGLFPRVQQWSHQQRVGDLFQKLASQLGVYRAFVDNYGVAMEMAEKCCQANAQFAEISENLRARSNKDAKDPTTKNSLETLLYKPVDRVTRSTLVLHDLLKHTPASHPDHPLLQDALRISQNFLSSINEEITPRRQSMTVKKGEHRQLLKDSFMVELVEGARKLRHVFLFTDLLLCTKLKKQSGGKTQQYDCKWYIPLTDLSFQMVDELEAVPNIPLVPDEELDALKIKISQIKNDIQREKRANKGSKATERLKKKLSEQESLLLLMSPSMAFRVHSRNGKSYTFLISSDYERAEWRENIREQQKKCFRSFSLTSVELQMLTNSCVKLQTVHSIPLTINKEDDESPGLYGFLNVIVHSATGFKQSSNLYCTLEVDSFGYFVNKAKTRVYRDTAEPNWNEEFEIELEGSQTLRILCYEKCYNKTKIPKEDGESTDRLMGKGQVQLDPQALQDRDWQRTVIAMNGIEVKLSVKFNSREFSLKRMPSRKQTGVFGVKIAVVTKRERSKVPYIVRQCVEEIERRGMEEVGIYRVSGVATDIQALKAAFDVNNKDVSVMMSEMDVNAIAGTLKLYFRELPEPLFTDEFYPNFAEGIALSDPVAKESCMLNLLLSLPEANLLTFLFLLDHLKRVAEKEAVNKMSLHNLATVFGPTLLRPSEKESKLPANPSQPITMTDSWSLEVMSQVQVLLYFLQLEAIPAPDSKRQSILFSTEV

The target of data set [2] is T2, pS354 S17K (phosphoserine Bcr peptide 350-366).
T2 chain: SSRVSPSPTTYRMFRDK

The target in data set [3] is T3, unphosphorylated S17K (Bcr peptide 350-366).
T3 chain: SSRVSPSPTTYRMFRDK

B1: p185 BCR-ABL (protein)
chain: MVDPVGFAEAWKAQFPDSEPPRMELRSVGDIEQELERCKASIRRLEQEVNQERFRMIYLQTLLAKEKKSYDRQRWGFRRAAQAPDGASEPRASASRPQPAPADGADPPPAEEPEARPDGEGSPGKARPGTARRPGAAASGERDDRGPPASVAALRSNFERIRKGHGQPGADAEKPFYVNVEFHHERGLVKVNDKEVSDRISSLGSQAMQMERKKSQHGAGSSVGDASRPPYRGRSSESSCGVDGDYEDAELNPRFLKDNLIDANGGSRPPWPPLEYQPYQSIYVGGMMEGEGKGPLLRSQSTSEQEKRLTWPRRSYSPRSFEDCGGGYTPDCSSNENLTSSEEDFSSGQSSRVSPSPTTYRMFRDKSRSPSQNSQQSFDSSSPPTPQCHKRHRHCPVVVSEATIVGVRKTGQIWPNDGEGAFHGDAEALQRPVASDFEPQGLSEAARWNSKENLLAGPSE[in this place about 60 residues]LEKHSWYHGPVSRNAAEYLLSSGINGSFLVRESESSPGQRSISLRYEGRVYHYRINTASDGKLYVSSESRFNTLAELVHHHSTVADGLITTLHYPAPKRNKPTVYGVSPNYDKWEMERTDITMKHKLGGGQYGEVYEGVWKKYSLTVAVKTLKEDTMEVEEFLKEAAVMKEIKHPNLVQLLGVCTREPPFYIITEFMTYGNLLDYLRECNRQEVNAVVLLYMATQISSAMEYLEKKNFIHRDLAARNCLVGENHLVKVADFGLSRLMTGDTYTAHAGAKFPIKWTAPESLAYNKFSIKSDVWAFGVLLWEIATYGMSPYPGIDLSQVYELLEKDYRMERPEGCPEKVYELMRACWQWNPSDRPSFAEIHQAFETMFQESSISDEVEKELGKQGVRGAVSTLLQAPELPTKTRTSRRAAEHRDTTDVPEMPHSKGQGESDPLDHEPAVSPLLPRKERGPPEGGLNEDERLLPKDKKTNLFSALIKKKKKTAPTPPKRSSSFREMDGQPERRGAGEEEGRDISNGALAFTPLDTADPAKSPKPSNGAGVPNGALRESGGSGFRSPHLWKKSSTLTSSRLATGEEEGGGSSSKRFLRSCSASCVPHGAKDTEWRSVTLPRDLQSTGRQFDSSTFGGHKSEKPALPRKRAGENRSDQVTRGTVTPPPRLVKKNEEAADEVFKDIMESSPGSSPPNLTPKPLRRQVTVAPASGLPHKEEAGKGSALGTPAAAEPVTPTSKAGSGAPGGTSKGPAEESRVRRHKHSSESPGRDKGKLSRLKPAPPPPPAASAGKAGGKPSQSPSQEAAGEAVLGAKTKATSLVDAVNSDAAKPSQPGEGLKKPVLPATPKPQSAKPSGTPISPAPVPSTLPSASSALAGDQPSSTAFIPLISTRVSLRKTRQPPERIASGAITKGVVLDSTEALCLAISRNSEQMASHSAVLEAGKNLYTFCVSYVDSIQQMRNKFAFREAINKLENNLRELQICPATAGSGPAATQDFSKLLSSVKEISDIVQR
With B1, in data set [1], the “serine/threonine autophosphorylation of Bcr, high level of Bcr-Abl complexes” value is listed as “the level of Bcr autophosphorylation was reduced about 30-fold” and the “serine/threonine autophosphorylation of Bcr, low level of Bcr-Abl (5%)” value is “reduced more than 2.5-fold by a low level of Bcr-Abl (5%)”. For the same protein, in data set [2], the “Bcr-Abl kinase activity (autophosphorylation in immune complex auto kinase assay, 50 ug peptide)” value is recorded as “strongly inhibited the Bcr-Abl kinase activity”. Moreover, the “Bcr-Abl kinase activity (autophosphorylation in immune complex auto kinase assay, 50 ug peptide)” value in data set [3] is given as “unphosphorylated SI 7K had little affect”.
